Test results from a collection of fitness landscapes (doi:10.1016/j.celrep.2020.107928).
The full ranking holds about 81,000 sequences; the median of “one-hybrid fitness for binding parS DNA” is about -0.17, and the highest 2% start at about 0.51. The list shows a part of the results.

B1: Caulobacter ParB omega fusion; a variant is named by its letters at X, in order, B8GW30 (parent)
chain: MESVVVGEPGMSEGRRGLGRGLSALLGEVDAAPAQAPGEQLGGSREAPIEILQRNPDQPRRTFREEDLEDLSNSIREKGVLQPILVRPSPDTAGEYQIVAGERAWRAAQRAGLKTVPIMVRELDDLAVLEIGIIENVQRADLNVLEEALSYKVLMEKFERTQENIAQTIGKSXSHVANXMRLLXLPDEVQSYLVSGELTAXHARAIAAAADPVALAKQIIEGGLSVRETEALARKAPNLSAGKSKGGRPPRVKDTDTQALESDLSSVLGLDVSIDHRGSTGTLTITYATLEQLDDLCNRLTRGI

Variants of: B1
Test: one-hybrid fitness for binding parS DNA (scaled: cognate 1, non-cognate 0); higher = stronger binding
Details: with parS DNA site
Outline: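 In E. coli USO, a HIS3 reporter with its site placed 19 bp from the promoter was used to select Caulobacter ParB variants randomised at four specificity codons. Growth lasted 48 hours at 37°C on histidine-free M9 containing 0.1 mM IPTG and 5 mM 3-AT. Fitness was taken as the log change in variant-to-wild-type read ratio from Illumina sequencing of pre- and post-selection plasmids, rescaled between the non-cognate and cognate sites.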

| Variant | one-hybrid fitness for binding parS DNA |
| --- | --- |
| VEEM | ≤ 0.2 |
| HPFR | ≤ 0.2 |
| VIAV | ≤ 0.2 |
| LPQE | ≤ 0.2 |
| CRSF | ≤ 0.2 |
| GPHC | ≤ 0.2 |
| YELL | ≤ 0.2 |
| RTWF | 0.275 |
| FALA | ≤ 0.2 |
| RNWW | ≤ 0.2 |
| SGAN | ≤ 0.2 |
| GVFC | ≤ 0.2 |
| YVCL | ≤ 0.2 |
| CAET | ≤ 0.2 |
| PHAK | ≤ 0.2 |
| DKWS | ≤ 0.2 |
| PSDC | ≤ 0.2 |
| HKAC | ≤ 0.2 |
| NWNS | ≤ 0.2 |
| AVKT | ≤ 0.2 |
| LIDC | ≤ 0.2 |
| KSMW | ≤ 0.2 |
| ITPC | ≤ 0.2 |
| WTLY | ≤ 0.2 |

| Variant | one-hybrid fitness for binding parS DNA |
| --- | --- |
| MAWC | ≤ 0.2 |
| HRPA | ≤ 0.2 |
| CLDS | ≤ 0.2 |
| IEQW | ≤ 0.2 |
| PLRG | ≤ 0.2 |
| EKMR | ≤ 0.2 |
| QAWP | ≤ 0.2 |
| AQHF | ≤ 0.2 |
| RSCN | 0.407 |
| NFFG | ≤ 0.2 |
| SPID | ≤ 0.2 |
| ASIP | ≤ 0.2 |
| VAMG | ≤ 0.2 |
| SRQA | ≤ 0.2 |
| TAHL | ≤ 0.2 |
| LMSN | ≤ 0.2 |
| RMYM | 0.348 |
| NHPT | ≤ 0.2 |
| ASCG | ≤ 0.2 |
| GHPF | ≤ 0.2 |
| IPFF | ≤ 0.2 |
| SSDK | ≤ 0.2 |
| HGCR | ≤ 0.2 |
| PGNK | ≤ 0.2 |

| Variant | one-hybrid fitness for binding parS DNA |
| --- | --- |
| RNLY | 0.303 |
| LRLK | ≤ 0.2 |
| QHMN | ≤ 0.2 |
| KIHR | ≤ 0.2 |
| RLAH | ≤ 0.2 |
| SGTN | ≤ 0.2 |
| ADNC | ≤ 0.2 |
| SRTT | ≤ 0.2 |
| TAIK | ≤ 0.2 |
| HPPQ | ≤ 0.2 |
| TWTC | ≤ 0.2 |
| RHSG | 0.958 |
| TQPE | ≤ 0.2 |
| APPA | ≤ 0.2 |
| KHVE | ≤ 0.2 |
| RHLL | ≤ 0.2 |
| GMIS | ≤ 0.2 |
| GDLR | ≤ 0.2 |
| PAFP | ≤ 0.2 |
| CDSL | ≤ 0.2 |
| VTSS | ≤ 0.2 |
| EGKI | ≤ 0.2 |
| RHAG | 0.969 |
| SIEG | ≤ 0.2 |

| Variant | one-hybrid fitness for binding parS DNA |
| --- | --- |
| PFRI | ≤ 0.2 |
| GISC | ≤ 0.2 |
| TMSP | ≤ 0.2 |
| CDTG | ≤ 0.2 |
| DIAY | ≤ 0.2 |
| LGAR | ≤ 0.2 |
| LSRL | ≤ 0.2 |
| QTNQ | ≤ 0.2 |
| THCR | ≤ 0.2 |
| TCRH | ≤ 0.2 |
| AYPT | ≤ 0.2 |
| LRSS | ≤ 0.2 |
| RKVD | ≤ 0.2 |
| HFCR | ≤ 0.2 |
| WTFN | ≤ 0.2 |
| MQWR | ≤ 0.2 |
| PRSV | ≤ 0.2 |
| QMSM | ≤ 0.2 |
| EVTT | ≤ 0.2 |
| DMTS | ≤ 0.2 |
| FGYT | ≤ 0.2 |
| EDNR | ≤ 0.2 |
| QYVQ | ≤ 0.2 |
| TNPV | ≤ 0.2 |

| Variant | one-hybrid fitness for binding parS DNA |
| --- | --- |
| DCRS | ≤ 0.2 |
| FTGR | ≤ 0.2 |
| PRWL | ≤ 0.2 |
| FIMR | ≤ 0.2 |
| DQNG | ≤ 0.2 |
| MKCT | ≤ 0.2 |
| IRNR | ≤ 0.2 |
| RYWS | 0.99 |
| YGDR | ≤ 0.2 |
| MHFY | ≤ 0.2 |
| LLVG | ≤ 0.2 |
| ESVT | ≤ 0.2 |
| FTWG | ≤ 0.2 |
| QVFR | ≤ 0.2 |
| EMAA | ≤ 0.2 |
| LPGG | ≤ 0.2 |
| RYEP | ≤ 0.2 |
| SGNL | ≤ 0.2 |
| QRLN | ≤ 0.2 |
| RWRL | ≤ 0.2 |
| NDLL | ≤ 0.2 |
| PRGV | ≤ 0.2 |
| NTML | ≤ 0.2 |
| QPDS | ≤ 0.2 |

| Variant | one-hybrid fitness for binding parS DNA |
| --- | --- |
| NRQC | ≤ 0.2 |
| QASI | ≤ 0.2 |
| KRMS | ≤ 0.2 |
| HRIC | ≤ 0.2 |
| PFPL | ≤ 0.2 |
| TPAG | ≤ 0.2 |
| HHRR | ≤ 0.2 |
| RMNK | ≤ 0.2 |
| TEMG | ≤ 0.2 |
| TDNA | ≤ 0.2 |
| APSS | ≤ 0.2 |
| SVVG | ≤ 0.2 |
| RCGY | 0.43 |
| YCHS | ≤ 0.2 |
| PRYS | ≤ 0.2 |
| MTDD | ≤ 0.2 |
| GEPF | ≤ 0.2 |
| ELYR | ≤ 0.2 |
| INPT | ≤ 0.2 |
| SRLV | ≤ 0.2 |
| STQG | ≤ 0.2 |
| RCKT | 0.748 |
| HQDR | ≤ 0.2 |
| KPKR | ≤ 0.2 |

| Variant | one-hybrid fitness for binding parS DNA |
| --- | --- |
| ESIT | ≤ 0.2 |
| PHEW | ≤ 0.2 |
| EIDS | ≤ 0.2 |
| TKIE | ≤ 0.2 |
| YRIG | ≤ 0.2 |
| MPFT | ≤ 0.2 |
| FFHG | ≤ 0.2 |
| VYGA | ≤ 0.2 |
| KTPR | ≤ 0.2 |
| WLRC | ≤ 0.2 |
| RDDA | ≤ 0.2 |
| HRFA | ≤ 0.2 |
| HKMR | ≤ 0.2 |
| QHFI | ≤ 0.2 |
| PHAA | ≤ 0.2 |
| SLWV | ≤ 0.2 |
| NPNC | ≤ 0.2 |
| SNDR | ≤ 0.2 |
| QRWP | ≤ 0.2 |
| WDRS | ≤ 0.2 |
| TPYN | ≤ 0.2 |
| PWLI | ≤ 0.2 |
| RITY | 0.443 |
| FRTT | ≤ 0.2 |

| Variant | one-hybrid fitness for binding parS DNA |
| --- | --- |
| QSLA | ≤ 0.2 |
| KDSS | ≤ 0.2 |
| MQFT | ≤ 0.2 |
| QDWF | ≤ 0.2 |
| TKTD | ≤ 0.2 |
| RRRL | ≤ 0.2 |
| CMWR | ≤ 0.2 |
| HSRF | ≤ 0.2 |
| DEKG | ≤ 0.2 |
| GRGD | ≤ 0.2 |
| SQHS | ≤ 0.2 |
| TPLT | ≤ 0.2 |
| SCPT | ≤ 0.2 |
| VGMH | ≤ 0.2 |
| YIAS | ≤ 0.2 |
| TTIT | ≤ 0.2 |
| CSGT | ≤ 0.2 |
| NLEC | ≤ 0.2 |
| QTVN | ≤ 0.2 |
| RAPQ | ≤ 0.2 |
| FQQS | ≤ 0.2 |
| YACV | ≤ 0.2 |
| QQQM | ≤ 0.2 |
| RCEF | ≤ 0.2 |

| Variant | one-hybrid fitness for binding parS DNA |
| --- | --- |
| QMKH | ≤ 0.2 |
| LYLG | ≤ 0.2 |
| EIMG | ≤ 0.2 |
| TWHE | ≤ 0.2 |
| WSTF | ≤ 0.2 |
| VLHF | ≤ 0.2 |
| HCYR | ≤ 0.2 |
| DGDV | ≤ 0.2 |
| GLLD | ≤ 0.2 |
| QFYS | ≤ 0.2 |
| KGMS | ≤ 0.2 |
| YDTS | ≤ 0.2 |
| PLPS | ≤ 0.2 |
| WACG | ≤ 0.2 |
| FMGL | ≤ 0.2 |
| TPLA | ≤ 0.2 |
| RRWD | ≤ 0.2 |
| SYHT | ≤ 0.2 |
| KELG | ≤ 0.2 |
| PVTG | ≤ 0.2 |
| NRDM | ≤ 0.2 |
| VCVR | ≤ 0.2 |
| MAMG | ≤ 0.2 |
| MDMR | ≤ 0.2 |

| Variant | one-hybrid fitness for binding parS DNA |
| --- | --- |
| FNPV | ≤ 0.2 |
| SIDW | ≤ 0.2 |
| MQIG | 0.314 |
| EQSS | ≤ 0.2 |
| SMLT | ≤ 0.2 |
| WQCC | ≤ 0.2 |
| QESC | ≤ 0.2 |
| SICR | ≤ 0.2 |
| AQNE | ≤ 0.2 |
| NYMR | ≤ 0.2 |
| YVDC | ≤ 0.2 |
| FYEL | ≤ 0.2 |
| HSMM | ≤ 0.2 |
| HTVF | ≤ 0.2 |
| GKND | ≤ 0.2 |
| FTSK | ≤ 0.2 |
| DCVD | ≤ 0.2 |
| SWVC | ≤ 0.2 |
| LTLI | ≤ 0.2 |
| VTIS | ≤ 0.2 |
| LYAS | ≤ 0.2 |
| KNNT | ≤ 0.2 |
| WQGR | ≤ 0.2 |
| TTWG | ≤ 0.2 |

| Variant | one-hybrid fitness for binding parS DNA |
| --- | --- |
| ANAI | ≤ 0.2 |
| TGFI | ≤ 0.2 |
| IPAH | ≤ 0.2 |
| EIIC | ≤ 0.2 |
| MHVS | ≤ 0.2 |
| DWMV | ≤ 0.2 |
| DAAC | ≤ 0.2 |
| QAMM | ≤ 0.2 |
| CTSR | ≤ 0.2 |
| YTQS | ≤ 0.2 |
| ANTK | ≤ 0.2 |
| RTMQ | 0.208 |
| INPR | ≤ 0.2 |
| HKNG | ≤ 0.2 |
| MRKW | ≤ 0.2 |
| KRTT | ≤ 0.2 |
| AAKC | ≤ 0.2 |
| ISKV | ≤ 0.2 |
| IKNT | ≤ 0.2 |
| CDTV | ≤ 0.2 |
| LDQV | ≤ 0.2 |
| HIAE | ≤ 0.2 |
| WLAR | ≤ 0.2 |
| NCWT | ≤ 0.2 |

| Variant | one-hybrid fitness for binding parS DNA |
| --- | --- |
| LACI | ≤ 0.2 |
| QYNP | ≤ 0.2 |
| IGER | ≤ 0.2 |
| NRHY | ≤ 0.2 |
| AIGN | ≤ 0.2 |
| LAGC | ≤ 0.2 |
| VKQV | ≤ 0.2 |
| VREL | ≤ 0.2 |
| CGMC | ≤ 0.2 |
| RTMD | ≤ 0.2 |
| PDFS | ≤ 0.2 |
| QSAN | ≤ 0.2 |
| GKQT | ≤ 0.2 |
| KMLG | ≤ 0.2 |
| CYWM | ≤ 0.2 |
| TNHV | ≤ 0.2 |
| SSTH | ≤ 0.2 |
| PHAR | ≤ 0.2 |
| KAPW | ≤ 0.2 |
| DHSV | ≤ 0.2 |
| QTNI | ≤ 0.2 |
| HQLS | ≤ 0.2 |
| PPCN | ≤ 0.2 |
| QDNY | ≤ 0.2 |

| Variant | one-hybrid fitness for binding parS DNA |
| --- | --- |
| SPQW | ≤ 0.2 |
| HGAL | ≤ 0.2 |
| VFMV | ≤ 0.2 |
| KRNM | ≤ 0.2 |
| VKVT | ≤ 0.2 |
| IWKN | ≤ 0.2 |
| PGGI | ≤ 0.2 |
| HTLF | ≤ 0.2 |
| TQWT | ≤ 0.2 |
| PLPE | ≤ 0.2 |
| VGCV | ≤ 0.2 |
| SKGS | ≤ 0.2 |
| METI | ≤ 0.2 |
| ESLW | ≤ 0.2 |
| ANLH | ≤ 0.2 |
| SCRA | ≤ 0.2 |
| TLSV | ≤ 0.2 |
| IRGG | ≤ 0.2 |
